Some of the results follow.
system: PfSIP2 AP2 domain 1 (GST-tagged); assay: gcPBM binding intensity (ln(normalized median fluorescence intensity)); higher = stronger DNA binding
Procedure, shortened: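 The binding buffer was 1× PBS containing 1% milk, 0.2 mg/ml BSA, 0.5% salmon testes DNA and 0.03% Triton X-100. In it, GST-tagged P. falciparum DNA-binding domains expressed in E. coli were applied for 1 h to an Agilent 4 × 180k array of primer-extended double-stranded 36-bp intergenic genomic probes plus negative controls. Binding intensity, read with Alexa488 anti-GST antibody and a 488 nm scan, is the highest Masliner-normalised natural-log median intensity across replicate spots of either probe orientation.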

Row | Sequence | gcPBM binding intensity (ln)
1 | GAATATTAAACAAACACACACACATATATATATATA [CACACA_site3382] | 9.4
2 | GTTTATTGATTTATTTGTACTTATATATATATTTCA [XGTACX_site5098] | 7.34
3 | GTATAAAAATTATATACACACAACAGAATTACATAT [CACACA_site133] | 7.03
4 | AAGGATATGAAAAGTAGTACAAAATTTAGAACACCC [XGTACX_site4758] | 7.37
5 | TTACGATTAAATATAACACACAACATATTTTTAATA [CACACA_site2967] | 6.98
6 | ATTATATTCTCCTTCACACACAAAAATATTTCATCA [CACACA_site5326] | 7.18
7 | CACAAAAATTTATACACACACATATATAATATATAT [CACACA_site152] | 7.35
8 | AAGTATTACAACCACACACACACCTATATATCATAG [CACACA_site7878] | 7.08
9 | ATCTTTTACGAATACACACACATAAAGAAAAAAAAA [CACACA_site1331] | 7.34
10 | ATTTCAAATTAATTTACACACTTCATACTAAAAGAC [CACACA_site3176] | 7.6
11 | TTGATATATAATAATACACACTTACATAATTAATTA [CACACA_site4320] | 6.88
12 | TCCTACATATAAAAATGTACCCATTGTTTTTTTTTT [XGTACX_site7205] | 6.84
13 | TATATATATATATATACACACATATACATATTGTTT [CACACA_site3499] | 9.71
14 | TTGTGTTAACTACCATGTACTTATACATCATAGGAA [XGTACX_site6627] | 6.98
15 | AATGTATATAGAAACATGCACACGTGGTTGTATATA [CACACA_site3278] | 7.29
16 | TTTTTGTATGCTTCCCGATTACATTATGTTGTAAAT [CACACA_negctrl_site227] | 7.06
17 | ATTTATGTTATATATACACACACAAAAGAAAAAAAA [CACACA_site8977] | 7.05
18 | ATACATATAAAAAAGTGTACATATTAAAATAAGTAT [XGTACX_site1310] | 6.99
19 | TTTTTTATAAATCAAATGAAAAATAAACTATTCAGA [CACACA_negctrl_site1568] | 6.59

Row | Sequence | gcPBM binding intensity (ln)
20 | ATATCCGTTCAAAGATGTACATATATATTCTATAGA [XGTACX_site5354] | 7.29
21 | AATGCAAATAATAAAACACACAAAAAAAAGAAAAAA [CACACA_site1184] | 6.62
22 | TCATACAAACCTATTTGTACATAAGTATAATATATA [XGTACX_site4284] | 6.96
23 | TATTGCCCTGGACACACACACATATATATATATATA [CACACA_site5389] | 9.4
24 | ATAATATAAACATACACACACACATCTATATTTATA [CACACA_site7381] | 7.08
25 | TTATGTTATATAAAAAGTACAAATTTTTTTTAATTA [XGTACX_site3435] | 6.97
26 | ATTATTATTATATATGCATGTAAAATATTAAAGTAC [TGCATGCA_site914] | 7.59
27 | TTTCTTTCTATTGTTATATTTATAATAATTATAATT [XGTACX_negctrl_site215] | 7.09
28 | TGTTTAAGTGTTTTTAGTACTTATAAAAATATTATC [XGTACX_site7379] | 6.98
29 | TATAAAATTACATTTTGTCATTTATTTTTTCCCACT [TGCATGCA_negctrl_site110] | 6.85
30 | ATATTATCCCTATTTGCACACAAGAGTAATTTTTTA [CACACA_site3908] | 7.42
31 | TTTCTAATATATAAAGTGCAATACCATTCAGAGTTA | 7.28
32 | ATTGTCTTTTAATAGTGTACTTATTTTAAATATTGC [XGTACX_site8517] | 7.17
33 | TTTTATAGAGTGTATACATGCAATACCACATAAAAT [TGCATGCA_site476] | 7.12
34 | ATATGGAAGAATTAAAGTACTTAAAAAAATGTCAGT [XGTACX_site6837] | 7.48
35 | AAGAAAATAAAATAAAATAAAATAAAATAAAAATAT [TGCATGCA_negctrl_site493] | 6.77
36 | TATAATTTATAAGTAGTGCATTTCTTTTCATTTTTA | 9.07
37 | TGATGATATAAAAACACACACATATAACATAATACT [CACACA_site6687] | 7.04
38 | TTATTATATATAAGTAGTACAAACAATTAAGAGATA [XGTACX_site4009] | 7.27

Row | Sequence | gcPBM binding intensity (ln)
39 | TTTTTTTTTTTTAATACACACATATATATATTTATT [CACACA_site3994] | 6.97
40 | GTAAAAAAAAAAAAATGTACACATATATATAATATA [XGTACX_site159] | 6.91
41 | AACATAATTAAAAATTGTACAGAATTTCAATCGAAA [XGTACX_site7542] | 6.76
42 | ATAAAAATGTATATATGTACATATATATATATATAT [XGTACX_site1505] | 9.79
43 | CTTTTTAATTAATACACACACACACCCATATATATA [CACACA_site2292] | 7.6
44 | ATCACTTGAGAATAATTACATTAATATATATTTATG [TGCATGCA_negctrl_site581] | 6.9
45 | CATATACATACACATACACACATACAGACATACACA [CACACA_site6919] | 7.38
46 | GGGAAAGAACCATATACATGCATATTTACCGTTAAA [TGCATGCA_site519] | 6.64
47 | TGAAATTTTATTAATGTGCACATATATTTATTGTTC | 8.56
48 | TGGGTATATATAAAAGGTACACAAAATGAAGATATA [XGTACX_site4994] | 7.25
49 | TAATTTCTTATGTATTGTACAAATAATATATTATAT [XGTACX_site1037] | 7.02
50 | TTTTCTGTGTTTTTGGGTACACACAAATAGCTTGTA [XGTACX_site8553] | 7.14
51 | ATATGTGTTAAAAATGCACACAAAAAAATATACATA [CACACA_site7988] | 7.38
52 | CAATTTTACTCATAAACACACATATATATGTTATTA [CACACA_site3152] | 6.97
53 | ATGGTTTAATTATATACACACTCGAAAATAACGACA [CACACA_site3258] | 7.1
54 | TGATATTATATTGTGATGCACTTTAAAAATATAAAG [GTGCAC_site9509] | 10.3
55 | CTTATTTTATTCGAATGTACATAATTGTTAGACATT [XGTACX_site8583] | 7.16
56 | AAAAAAAGGATGTACGTATCATAATTTTATTTTATA [CACACA_negctrl_site1543] | 6.98
57 | TTTTACAAATGTTTTACACACACATAATTGTATCAA [CACACA_site4166] | 7.01

Source: the supplement of paper PMC11417369
